Results taken from publication PMC4336329 (PLoS ONE, 2015).
The campaign covered roughly 310,000 compounds. About 14,000 (4.5%) showed an effect of 50% or more. The effect is printed as a negative number. The list shows a part of the results.

Molecular target: human ether-à-go-go-related gene (hERG) potassium channel (human, UniProt Q12809)
Experiment: primary screen, population patch clamp on CHO cells stably expressing hERG
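Further: peak tail current of the secondary pulse compared with the same well before compound.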

human ether-à-go-go-related gene (hERG) potassium channel, sequence (Q12809 whole entry, looked up): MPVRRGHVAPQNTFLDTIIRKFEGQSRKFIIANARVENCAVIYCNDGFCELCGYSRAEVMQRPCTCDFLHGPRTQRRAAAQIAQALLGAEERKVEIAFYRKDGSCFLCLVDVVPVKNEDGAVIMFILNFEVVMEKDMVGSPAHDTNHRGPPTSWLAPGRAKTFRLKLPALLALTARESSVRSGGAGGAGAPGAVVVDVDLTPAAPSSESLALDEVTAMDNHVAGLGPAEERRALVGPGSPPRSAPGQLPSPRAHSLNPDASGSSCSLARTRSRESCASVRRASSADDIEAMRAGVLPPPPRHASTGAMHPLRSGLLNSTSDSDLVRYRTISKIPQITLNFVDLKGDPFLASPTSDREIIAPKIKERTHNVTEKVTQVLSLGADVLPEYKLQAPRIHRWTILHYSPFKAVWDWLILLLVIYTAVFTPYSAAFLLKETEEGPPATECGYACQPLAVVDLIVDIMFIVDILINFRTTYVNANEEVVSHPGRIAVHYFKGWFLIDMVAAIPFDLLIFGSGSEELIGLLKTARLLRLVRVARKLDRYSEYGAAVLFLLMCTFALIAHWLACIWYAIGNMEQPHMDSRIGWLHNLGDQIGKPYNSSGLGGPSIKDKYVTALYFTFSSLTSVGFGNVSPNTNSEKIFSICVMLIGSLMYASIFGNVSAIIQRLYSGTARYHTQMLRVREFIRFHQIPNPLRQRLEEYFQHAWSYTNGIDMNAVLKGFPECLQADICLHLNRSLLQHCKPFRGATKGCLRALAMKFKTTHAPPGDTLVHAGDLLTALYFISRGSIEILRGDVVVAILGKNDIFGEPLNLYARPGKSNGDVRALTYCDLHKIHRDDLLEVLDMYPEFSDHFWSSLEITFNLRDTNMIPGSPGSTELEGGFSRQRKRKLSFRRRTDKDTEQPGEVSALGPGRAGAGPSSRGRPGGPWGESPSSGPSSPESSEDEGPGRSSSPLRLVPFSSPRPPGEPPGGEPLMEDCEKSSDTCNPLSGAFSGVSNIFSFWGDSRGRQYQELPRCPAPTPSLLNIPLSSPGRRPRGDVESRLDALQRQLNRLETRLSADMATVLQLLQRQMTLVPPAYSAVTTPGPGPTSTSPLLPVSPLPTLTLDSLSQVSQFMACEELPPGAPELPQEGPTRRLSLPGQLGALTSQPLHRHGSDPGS

| SMILES | hERG current change (%, negative = inhibition) at 10uM [%] |
| --- | --- |
| CC(=O)Oc1ccc2ccccc2c1C(NC(=O)Cc1ccccc1)c1ccccc1 (stereo not drawn) | -11.4 |
| O=C(COc1ccccc1)N=C1SC2CS(=O)(=O)CC2N1c1ccccc1F (stereo not drawn) | 3.73 |
| CCCCCn1c(=O)c(C(=O)NCc2ccc(Cl)cc2)c(O)c2ccccc21 | 4.19 |
| COc1ccc(-n2c(=S)[nH]c3cc(C(=O)Nc4cc(C(N)=O)ccc4OC)ccc3c2=O)c(OC)c1 | 26 |
| Cc1cc(C)nc(NS(=O)(=O)c2ccc(NC(=O)C(C)Oc3ccccc3F)cc2)n1 (stereo not drawn) | 19.7 |
| Cc1cc(C)cc(N(C(=O)c2csnn2)C(C(=O)NC2CCCC2)c2cccnc2)c1 (stereo not drawn) | 8.7 |
| O=C(Cn1cc(C(F)(F)F)ccc1=O)NCc1ccc(F)cc1 | 15.6 |
| O=[N+]([O-])c1ccc2oc(C3CCCCC3)nc2c1 | 7.67 |
| CC(=O)c1ccc(NC(=S)N2CCCC(CO)C2)cc1 (stereo not drawn) | 5.17 |
| Cc1nc2ccc(NC(=S)NC3CCCCC3)cc2nc1C | -25.7 |
| Cc1oc(-c2ccccc2)nc1C(=O)O | 17 |
| CCOc1ccc(CCNC(=O)CCS(=O)(=O)c2ccc(Br)cc2)cc1OCC | 13.8 |
| CC(C)NC(=O)CSc1nnc(CNC(=O)OC(C)(C)C)n1C | 9.62 |
| CCC(=O)c1c[nH]c(C(=O)NCc2cccnc2)c1 | 21.3 |
| Cn1cc([N+](=O)[O-])c(C(=O)NCc2cc3ccccc3[nH]2)n1 | 5.96 |
| CSc1ccccc1NC(=O)CSc1nnc(Cc2ccccc2)o1 | -2.35 |
| Cc1cccc(S(=O)(=O)c2c(N)n(-c3ccccc3)c3nc4ccccc4nc23)c1 | 7.14 |
| CCCn1c(NCc2ccc(C)o2)nc2ccccc21 | -24.1 |
| Cc1ccc(-c2nc(N)n(S(=O)(=O)c3ccc(C)cc3)n2)cc1 | 16 |

| SMILES | hERG current change (%, negative = inhibition) at 10uM [%] |
| --- | --- |
| Cc1cc(C)cc(N(C(=O)CNC(=O)c2ccco2)C(C(=O)NC2CCCC2)c2ccncc2)c1 (stereo not drawn) | -11.6 |
| CCN(CC)CCNC1=CC(=O)OC12CCCCC2 | 9.93 |
| CC(C)C(=O)c1cn(CC(=O)NCC2CCCO2)c2ccccc12 (stereo not drawn) | 9.59 |
| O=C(COC(=O)Cc1ccccc1)NCCNC(=O)COC(=O)Cc1ccccc1 | 1.43 |
| CC(C)OCCCNC(=O)C1CCC(CNS(=O)(=O)c2ccccc2)CC1 (stereo not drawn) | -7.62 |
| COc1cccc(CN2CCSCC2)c1OC | 14.4 |
| O=C1Nc2ccccc2/C1=C/c1ccccc1Cl | 7.15 |
| Cc1ccc(NC(=O)CCC(=O)O)cc1F | -2.25 |
| COc1cc2c(cc1OC)C(c1ccc(C(F)(F)F)cc1)CC(=O)N2 (stereo not drawn) | 3.75 |
| Cc1ccc(NC(=O)Nc2ccnc(-c3cccnc3)n2)cc1 | -23.4 |
| Cc1ccc(C(=O)OCC(=O)NNC(=O)COc2ccc(Cl)cc2)c(O)c1 | -2.08 |
| COc1cccc(-c2cccc(NC(=O)C3CCN(C4CCC4)CC3)c2)c1 | -51.7 |
| CCOC(=O)Cc1nnc(NC(=O)CSc2nnc3c4ccccc4n(C)c3n2)s1 | -40.9 |
| CCOC(=O)[C@@H]1[C@H]2COc3ccc(Br)cc3[C@H]2N2C(=O)N(c3ccc(C)cc3)C(=O)[C@]12C | -4.14 |
| N#CNC(=Nc1cccc(F)c1)SCc1cccc(F)c1 | 10.2 |
| O=C(Nc1nc2ccc(S(=O)(=O)N3CCCCC3)cc2s1)C1CCCO1 (stereo not drawn) | -12.5 |
| COc1ccc(CCNC(=O)c2nn(C)c3c2CS(=O)(=O)c2ccccc2-3)cc1OC | 12.6 |
| CCCCNc1c([N+](=O)[O-])ncn1C | -6.98 |
| CC[n+]1ccccc1/C=C1\Sc2ccc(C)cc2N1C.[I-] | -62.5 |

| SMILES | hERG current change (%, negative = inhibition) at 10uM [%] |
| --- | --- |
| CCOC(=O)c1c(-c2ccc(C)cc2)cn2ccccc12 | 2.58 |
| COc1ccccc1NC(=O)Nc1ccc(N2CCOCC2)cc1 | 23.8 |
| Cc1noc(C)c1S(=O)(=O)N1CCN(S(=O)(=O)c2ccccc2C#N)CC1 | 21.1 |
| CCN(CC(=O)Nc1ccc2c(c1)OCCO2)C(=O)COc1cc(C)ccc1Cl | 1.86 |
| COc1cc2cc(CN(CCCN3CCOCC3)C(=O)Nc3ccccc3F)c(=O)[nH]c2cc1OC | 34.6 |
| O=C(c1ccccc1Cl)N1CCN(S(=O)(=O)N2CCCCC2)CC1 | 8.16 |
| O=S(=O)(NCCOCCNS(=O)(=O)c1ccccc1)c1ccccc1 | 14.7 |
| CC(=O)CC(c1ccccc1)S(=O)(=O)c1ccc(C)cc1 (stereo not drawn) | 5.81 |
| O=C(CCCc1ccccc1)NCCc1cnc[nH]1 | 21.9 |
| Clc1nc2c(-c3ccccc3)nnn2c2ccccc12 | -3.03 |
| Cc1cccc(OCCCSc2nc3ccc(C)cc3[nH]2)c1 | 16.8 |
| Cc1ccc(C(=O)N/N=C\c2ccc[nH]2)cc1[N+](=O)[O-] | 8.33 |
| COc1ccc(C(C#N)C2(C)OCCO2)cc1OC (stereo not drawn) | -4.08 |
| CN(C)C(CNC(=S)Nc1ccccc1)c1cccnc1 (stereo not drawn) | 10.7 |
| CC(CC(=O)Nc1cc(S(=O)(=O)N2CCOCC2)ccc1OCC(F)(F)F)c1ccccc1 (stereo not drawn) | -50.2 |
| Cc1ccc(C(O)CN2C3=NCCCN3c3ccccc32)cc1.Cl (stereo not drawn) | -67.4 |
| Cn1nc([N+](=O)[O-])nc1Oc1ccc2ccccc2c1 | -4.26 |
| O=C(COC(=O)CCN1C(=O)c2cccc([N+](=O)[O-])c2C1=O)NC1CCS(=O)(=O)C1 (stereo not drawn) | 16.5 |
| Cc1ccccc1NC(=S)NC(=O)Cc1ccc(Cl)cc1 | 5.08 |
